# ± gives the uncertainty stated by the source. Over roughly 9,900 compounds, “viability index relative to DMSO control” has its median near 1; the lowest 2% begin near 0.85. Some of the results follow.
# Test system: Plasmodium falciparum NF54 stage V gametocytes
# Assay: viability index relative to DMSO control (fraction); higher = less gametocyte killing
# Settings: 2.5 µM, library set: Broad Institute DOS, incubation time: 72 h
# In short: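 Stage V gametocytes of P. falciparum NF54 were held in serum-free screening medium at 0.75% gametocytemia and 1.25% hematocrit, 10 µl per well of a 1,536-well plate, and exposed to compound at 2.5 µM for 72 hr at 37°C under low oxygen. A 3 µl mix of 2.5 µM MitoTracker Red CMXRos with 0.13% saponin was then added for one to two hours, after which one field per well was imaged and red particles of 20–70 µm2 were counted. The viability index equals this count divided by the plate mean from wells given solvent alone.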
row,SMILES,viability index
1,COc1ccc(NC(=O)N(C)C[C@@H]2Oc3c(NS(=O)(=O)c4c(C)noc4C)cccc3C(=O)N([C@H](C)CO)C[C@@H]2C)cc1,0.9833 ± 0.0028
2,COc1cccc(-c2ccc([C@H]3[C@H](C#N)N(C(=O)Cc4ccncc4)[C@H]3CO)cc2)c1,1.03 ± 0.083
3,COc1cccc(S(=O)(=O)Nc2ccc3c(c2)C(=O)N(C)[C@H]2CC[C@H](CC(=O)NCC4CCCCC4)O[C@H]2CO3)c1,1.04 ± 0.044
4,CCS(=O)(=O)N1C[C@@]2(C1)CN([C@H](CO)c1[nH]c3cc(OC)ccc3c21)S(=O)(=O)c1cn(C)cn1,0.897 ± 0.034
5,COc1ccc(S(=O)(=O)N2C[C@H](O)COC[C@@H]3O[C@H](CC(=O)N[C@@H]4CCN(Cc5ccccc5)C4)CC[C@H]32)cc1,0.962 ± 0.015
6,CC(=O)N1[C@H](CN(CC(C)C)C(=O)c2ccccn2)[C@H](c2ccccc2)[C@@H]1CO,1.073 ± 0.0089
7,C[C@H]1CN([C@@H](C)CO)C(=O)c2c(c3ccccc3n2C)-c2ccccc2CO[C@@H]1CN(C)C(=O)Nc1ccccc1C(F)(F)F,1.009 ± 0.0034
8,Cc1ccc(-c2ccc([C@H]3[C@H]4CNC[C@@H]3N4Cc3ccc(F)cc3)cc2)cc1,1.05 ± 0.015
9,Fc1ccccc1-c1ccc([C@H]2[C@@H]3CN(Cc4ccccn4)C[C@H]2N3)cc1,0.926 ± 0.11
10,CN1C(=O)c2cc(NC(=O)Nc3ccccc3Cl)ccc2OC[C@@H]2O[C@@H](CC(=O)O)CC[C@@H]21,1.02 ± 0.038
11,C[C@H](CO)N1C[C@H](C)[C@@H](CN(C)S(=O)(=O)c2cn(C)cn2)Oc2ncc(C3=CCCCC3)cc2C1=O,1.04 ± 0.066
12,CO[C@@H]1CC[C@@H]2CCN(C)C(=O)[C@H](C)N(C)C(=O)c3cccc(C#N)c3OC[C@@H]1O2,1.04 ± 0.069
13,C[C@H]1CN([C@@H](C)CO)S(=O)(=O)c2ccc(C#CC3(O)CCCC3)cc2O[C@H]1CN(C)C(=O)Nc1cccc(F)c1,1.03 ± 0.064
14,CCC(=O)Nc1ccc2c(c1)OC[C@H](C)N(Cc1ccccc1)C[C@H](C)[C@H](OC)CN(C)C2=O,1.033 ± 0.0097
15,C[C@@H]1CN([C@H](C)CO)C(=O)Cc2cc(NS(=O)(=O)c3cccs3)ccc2O[C@@H]1CN(C)CC1CCCCC1,1.05 ± 0.12
16,COc1ccc2c3c([C@H](CO)N(C[C@]33CN(Cc4nccs4)C3)C(=O)Nc3cccc(F)c3)n(C)c2c1,1.03 ± 0.019
17,COc1ccc2c3c([nH]c2c1)[C@@H](CO)N(C[C@]31CCN(CC1)C(=O)Nc1ccccc1)S(C)(=O)=O,0.99 ± 0.15
18,O=C(C[C@@H]1CC[C@@H]2[C@H](COC[C@@H](O)CN2C(=O)Nc2cccc(F)c2)O1)NCCCN1CCOCC1,1.12 ± 0.081
19,O=C(C1CCC1)N1CCCCN2[C@H](CO)[C@@H](c3ccc(-c4ccncc4)cc3)[C@H]2C1,1.06 ± 0.022
20,COCC(=O)N1C[C@@]2(C1)CN(Cc1nccs1)[C@@H](CO)c1c2c2ccc(OC)cc2n1C,1.02 ± 0.022
21,CN1C(=O)c2cc(NC(=O)Nc3cccc(C#N)c3)ccc2OC[C@H]2O[C@@H](CC(=O)NCc3ccc(Cl)cc3)CC[C@@H]21,1.01 ± 0.046
22,COCC(=O)N1[C@@H](C#N)[C@H](c2ccc(C#CCC3CCCC3)cc2)[C@@H]1CO,0.995 ± 0.023
23,CC(C)CC#Cc1ccc([C@H]2[C@H](CO)N3C(=O)CN(C(=O)Nc4cc(F)ccc4F)C[C@@H]23)cc1,1.02 ± 0.059
24,CCN(C[C@H]1N[C@@H](CO)[C@@H]1c1ccccc1)C(=O)c1ccncc1,0.993 ± 0.049

row,SMILES,viability index
1,O=C(C[C@H]1C=C[C@@H](NS(=O)(=O)c2ccccc2)[C@H](CO)O1)NCCN1CCCCC1,1.17 ± 0.14
2,O=C(c1ccccn1)N1CC[C@H]2[C@H](CO)Nc3ccc(C#Cc4cccnc4)cc3[C@H]21,1.1 ± 0.013
3,COc1ccc2c3c([C@H](CO)N(C[C@]33CN(C3)C(=O)c3ccccc3F)C(=O)Nc3ccccc3F)n(C)c2c1,1.03 ± 0.032
4,COCC(=O)N1CC(=O)N2[C@H](CO)[C@@H](c3ccc(-c4ccccc4F)cc3)[C@H]2C1,0.948 ± 0.054
5,CN(C)C(=O)c1cccc(-c2ccc3c(c2)[C@H]2[C@H](CCN2C(=O)Cc2ccccc2)[C@H](CO)N3)c1,1.03 ± 0.03
6,O=C(C[C@H]1C=C[C@H](NC(=O)c2cnccn2)[C@@H](CO)O1)NCc1ccccc1F,1.16 ± 0.056
7,C[C@@H]1CN([C@@H](C)CO)C(=O)c2cc(NS(=O)(=O)c3ccc(F)cc3)ccc2O[C@H]1CN(C)C(=O)Nc1ccccc1,1 ± 0.14
8,CN(C)C(=O)c1cccc(-c2ccc3c(c2)[C@@H]2[C@@H](CCN2C(=O)c2cnccn2)[C@H](CO)N3)c1,1.17 ± 0.072
9,C[C@H](NC(=O)C[C@@H]1C=C[C@H](NC(=O)c2cccnc2)[C@H](CO)O1)c1ccccc1,1.11 ± 0.077
10,CO[C@H]1CN(C)C(=O)c2cc(NC(=O)NC3CCCCC3)ccc2OC[C@@H](C)N(CC2CCOCC2)C[C@H]1C,1.099 ± 0.0089
11,COc1cccc(-c2ccc([C@H]3[C@H]4CNCC(=O)N4[C@H]3CO)cc2)c1,0.999 ± 0.084
12,COc1ccc(S(=O)(=O)Nc2ccc3c(c2)C(=O)N([C@@H](C)CO)C[C@H](C)[C@@H](CN(C)S(=O)(=O)c2ccc(Cl)cc2)OCCCC[C@H](C)O3)cc1,0.944 ± 0.018
13,O=C(C[C@H]1CC[C@@H]2[C@H](COC[C@@H](O)CN2Cc2ccc(Oc3ccccc3)cc2)O1)N1CCN(c2ccccc2)CC1,1.06 ± 0.068
14,O=C(Nc1ccccc1F)N1CCCCN2[C@H](CO)[C@@H](c3ccc(/C=C/c4ccccc4)cc3)[C@H]2C1,0.859 ± 0.037
15,CCC(=O)N1C[C@]2(CCN(Cc3ccc(Cl)cc3)CC2)c2c([C@H]1CO)n(C)c1cc(OC)ccc21,0.983 ± 0.091
16,C[C@@H]1CN([C@H](C)CO)C(=O)c2cc(NC(=O)Nc3cccc4ccccc34)ccc2O[C@@H](C)CCCCO[C@H]1CN(C)S(=O)(=O)c1cn(C)cn1,1.04 ± 0.11
17,CN(C)C(=O)c1ccc(-c2ccc([C@@H]3[C@H]4CNC[C@@H]3N4C(=O)Nc3cc(F)ccc3F)cc2)cc1,1.11 ± 0.073
18,C[C@@H]1CCCCO[C@H](CN(C)Cc2ccc(C(=O)O)cc2)[C@@H](C)CN([C@@H](C)CO)C(=O)c2cc(N(C)C)ccc2O1,1.07 ± 0.11
19,O=C(C[C@H]1CC[C@H]2[C@@H](COC[C@@H](O)CN2Cc2ccc(F)cc2)O1)NCCc1ccccc1,1.04 ± 0.062
20,CN(C)CC(=O)N1[C@H](C#N)[C@@H](c2ccc(-c3cccc(C(=O)N(C)C)c3)cc2)[C@H]1CO,1.06 ± 0.053
21,CN1C(=O)c2cc(NS(C)(=O)=O)ccc2OC[C@@H]2O[C@@H](CC(=O)N3CCOCC3)CC[C@H]21,1.06 ± 0.025
22,O=S(=O)(c1ccc(-c2ccccc2)cc1)N1C[C@@H]2N[C@H](C1)[C@@H]2c1ccc(-c2ccncc2)cc1,1.072 ± 0.0057
23,C[C@@H]1CN([C@H](C)CO)C(=O)c2ccccc2-c2ccccc2CO[C@@H]1CN(C)C(=O)Nc1cccc(C(F)(F)F)c1,0.9998 ± 0.0068
24,O=C(Nc1ccccc1)[C@H]1[C@H](CO)[C@H]2Cn3c(ccc(C4=CCCCC4)c3=O)[C@H]2N1Cc1cocn1,1.05 ± 0.012

row,SMILES,viability index
1,COc1ccccc1-c1ccc2c(c1)[C@H]1[C@H](CCN1C(=O)C1CCC1)[C@@H](CO)N2,0.865 ± 0.097
2,C/C=C/c1ccc([C@H]2[C@@H](CO)N3C(=O)CN(S(=O)(=O)c4ccccc4)C[C@H]23)cc1,0.975 ± 0.12
3,C[C@@H]1CN([C@@H](C)CO)C(=O)CCCn2nncc2CO[C@H]1CN(C)Cc1ccc2c(c1)OCCN2C,0.967 ± 0.0097
4,CCCNC(=O)N1CC2(C1)[C@H](c1ccccc1)[C@H](CO)N2C(=O)c1cccnc1,1.08 ± 0.065
5,CC(C)NC(=O)Nc1cccc2c1O[C@H](CN(C)C(=O)Nc1ccccc1)[C@@H](C)CN([C@@H](C)CO)C2=O,1.09 ± 0.07
6,CN1C(=O)c2cc(NC(=O)Cc3cccs3)ccc2OC[C@H]2O[C@H](CC(=O)NCCCN3CCOCC3)CC[C@H]21,1.11 ± 0.039
7,N#C[C@@H]1[C@@H](c2ccccc2-c2ccccc2F)[C@H](CO)N1C(=O)C1CCC1,1.18 ± 0.055
8,COCC(=O)N1C[C@]2(CCN(Cc3cccnc3)CC2)c2c([C@@H]1CO)n(C)c1cc(OC)ccc21,1.07 ± 0.069
9,COc1ccc2c3c([nH]c2c1)[C@H](CO)NC[C@]31CCN(CC1)C(=O)C1CCOCC1,0.98 ± 0.08
10,C[C@H]1CN([C@@H](C)CO)C(=O)c2cccc(NS(=O)(=O)c3ccc(F)cc3)c2O[C@@H]1CN(C)Cc1ccc(Cl)c(Cl)c1,1.05 ± 0.019
11,COc1ccccc1NC(=O)N1C[C@H]2[C@@H](c3ccccc31)[C@@H](CO)N2Cc1ccc2c(c1)OCO2,1.02 ± 0.048
12,Fc1ccccc1CN1[C@@H]2CNC[C@H]1[C@H]2c1ccc(-c2ccccc2)cc1,1.1 ± 0.044
13,C/C=C/c1ccccc1[C@H]1[C@@H](C#N)N(C(=O)NC2CCCCC2)[C@H]1CO,1.11 ± 0.092
14,COc1ccccc1-c1ccc2n(c1=O)C[C@H]1[C@H](CO)[C@@H](C(=O)N3CCOCC3)[C@@H]2N1CC1CC1,1.09 ± 0.03
15,CCC(=O)N1C[C@@H](C)[C@@H](OC)CN(C)C(=O)c2cc(NC(=O)Nc3ccc(Cl)cc3)ccc2OC[C@H]1C,1.03 ± 0.065
16,C[C@@H]1C(=O)N[C@H](c2ccccc2)C/C=C/C[C@H](C)Oc2ccccc2C(=O)N1C.C[C@@H]1C(=O)N[C@H](c2ccccc2)C/C=C\C[C@H](C)Oc2ccccc2C(=O)N1C,1.01 ± 0.044
17,O=C1[C@H](Cc2ccc(F)cc2)CCn2cc(nn2)COC[C@H]2CCCN12,0.995 ± 0.016
18,CN1C(=O)c2cc(NC(=O)Nc3ccc(Cl)cc3)ccc2OC[C@H]2O[C@@H](CC(=O)NCCN3CCCCC3)CC[C@@H]21,0.994 ± 0.088
19,Cc1cccc(S(=O)(=O)N2C[C@@H]3[C@H](c4ccccc42)[C@H](CO)N3CC2CCCC2)c1,0.949 ± 0.011
20,COCCNC(=O)C[C@@H]1C[C@@H]2c3cc(NC(=O)CN(C)C)ccc3O[C@@H]2[C@@H](CO)O1,1.06 ± 0.061
21,COc1ccc(C[C@H]2CCn3cc(nn3)COC[C@H](c3ccccc3)NC2=O)cc1,1.1 ± 0.046
22,CCC(=O)Nc1ccc2c(c1)C(=O)N(C)C[C@@H](OC)[C@H](C)CN(Cc1nccs1)[C@@H](C)CO2,1.16 ± 0.079
